Data published in PubChem BioAssay (NCATS).
Several values for one entry are separate records, joined by “and”; a condition that tells them apart may be missing. Equal entries are not always repeated. The inconclusive results got no clear call from the source; some entries with a clear call stand among them for comparison. Potencies beside an inconclusive call are fits to weak or partial responses and may not hold up. For part of these data: A note “side channel” means that the fit belongs to a control or component signal, not to the main read-out. Activity calls are given as the source filed them. Unless noted, calls follow the shape of the full dose curve.
Potency is read from the fitted curve at half-maximal effect; tags tell the direction and shape of the fitted curve or compound fluorescence and quenching.

Test system: not listed separately
Experiment: qHTS Assay for Identification of Small Molecule Antagonists for NFkB Signaling Pathway (AID 895; active = well fitted inhibition curve with a large enough effect in the signal ratio, with a control signal flat, not every such curve was filed as active; inconclusive = small, poorly fitted or top-dose-only effect, or effect the other way, or a change in a side signal; the % refers to the signal ratio; as to activity change, negative = inhibition: % is scaled to controls: 0 for no effect and ±100 for the full control effect)
Conditions: NFkB beta-lactamase reporter cells, FRET ratio 460/530; activity change, negative = inhibition: at 38.3 µM (top of the series) unless noted
Summary of the method: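 Beta-lactamase reporter read-out (460 and 530 nm emission ratio, 405 nm excitation, 2 hrs substrate loading RT) after 5 hr stimulation with 10 pM TNF alpha in compound-treated NFkB-bla ME-180 cells in low-serum medium.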
With `CCCn1c(C)c(C(=O)c2ccc3ccccc3c2)c2ccccc21` the Potency was inconclusive: 25.1 µM [inhibitor, single point]. In the case of `Brc1c(Br)c(Br)c2n[nH]nc2c1Br`, the Potency is reported as active: 5.01 µM. With `Clc1cnc(Oc2ccc(Oc3ncc(Cl)cc3Cl)cc2)c(Cl)c1` the activity change, negative = inhibition was inconclusive: 10.2%.

Test system: not listed separately
Experiment: Validation screen for inhibitors of Lassa infection (AID 463096); as to activity change, negative = inhibition: % is scaled to controls: 0 for no effect and ±100 for the full control effect
Conditions: Lassa virus infection, cell-based; series mostly up to 46.1 µM; activity change, negative = inhibition: at the top concentration
For `CCCn1c(C)c(C(=O)c2ccc3ccccc3c2)c2ccccc21`, the “activity change, negative = inhibition” value was inactive: 34%. With `CN1C(C)(C)CCCC1(C)C` the Potency was inconclusive: 20 µM [activator, single point]. In the case of `N#CC(=C(\N)Sc1ccccc1N)/C(C#N)=C(/N)Sc1ccccc1N`, the Potency is reported as active: 0.794 µM. For `CC(C(=O)O)c1ccc(CC2CCCC2=O)cc1` (stereo not drawn), the Potency was inconclusive: 17.8 µM [activator, partial curve].

Biological target: Ubiquitin carboxyl-terminal hydrolase 1 (Homo sapiens) (UniProt O94782)
Chain of UniProt O94782 (O94782 whole entry, looked up): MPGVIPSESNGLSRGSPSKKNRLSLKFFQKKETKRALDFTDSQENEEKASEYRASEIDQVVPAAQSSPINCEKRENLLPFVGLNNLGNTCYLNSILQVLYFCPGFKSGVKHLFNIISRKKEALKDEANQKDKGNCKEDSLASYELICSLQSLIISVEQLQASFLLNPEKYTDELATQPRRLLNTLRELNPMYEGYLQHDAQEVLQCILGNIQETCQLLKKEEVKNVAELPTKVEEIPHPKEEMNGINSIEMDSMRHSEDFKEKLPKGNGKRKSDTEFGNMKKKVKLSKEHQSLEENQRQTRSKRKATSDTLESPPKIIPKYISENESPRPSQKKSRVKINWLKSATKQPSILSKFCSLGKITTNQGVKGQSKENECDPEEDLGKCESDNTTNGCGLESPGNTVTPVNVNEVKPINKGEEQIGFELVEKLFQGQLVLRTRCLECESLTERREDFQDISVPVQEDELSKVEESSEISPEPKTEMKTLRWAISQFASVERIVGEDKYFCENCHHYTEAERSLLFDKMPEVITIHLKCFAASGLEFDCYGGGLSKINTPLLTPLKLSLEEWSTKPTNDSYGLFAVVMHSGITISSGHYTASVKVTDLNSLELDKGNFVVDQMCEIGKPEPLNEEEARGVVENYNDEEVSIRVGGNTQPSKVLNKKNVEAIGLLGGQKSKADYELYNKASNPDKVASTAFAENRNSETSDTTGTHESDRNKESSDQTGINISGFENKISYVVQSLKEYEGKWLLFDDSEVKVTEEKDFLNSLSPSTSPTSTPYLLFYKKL
Experiment: Inhibitors of USP1/UAF1: Pilot qHTS (AID 504865; active = well fitted inhibition curve with a large enough effect; inconclusive = small, poorly fitted or top-dose-only effect;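 also: rhodamine fluorescence freed from ubiquitin-rhodamine substrate followed over time; nearly all actives have a fitted effect of over 35% in size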)
Conditions: purified USP1/UAF1, Ub-rhodamine cleavage fluorescence; series mostly up to 114 µM; activity change, negative = inhibition: at the top concentration
Summary of the method: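 1nM USP1/UAF1 + cpd, 15 min RT; start w/ Ub-Rho 150nM final; kinetic FL 480/540 nm, 6 reads q60 s. Buffer 50mM HEPES pH 7.8, 0.5mM EDTA, 1mM TCEP, 0.01% Tween-20, 0.1 mg/ml BSA.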
In the case of `CCCn1c(C)c(C(=O)c2ccc3ccccc3c2)c2ccccc21`, the Potency is reported as inconclusive: 20 µM [inhibitor, partial curve, poor fit]. For `Brc1c(Br)c(Br)c2n[nH]nc2c1Br`, the Potency was active: 56.2 µM. In the case of `O=C(Nc1ccc(Oc2ccc(Cl)cc2)c(Cl)c1)c1cc(I)cc(I)c1O`, the Potency is reported as inconclusive: 56.2 µM [inhibitor, partial curve, poor fit].

Biological target: Peroxisome proliferator-activated receptor gamma (Homo sapiens) (UniProt P37231)
Experiment: qHTS assay for small molecule antagonists of peroxisome proliferator-activated receptor gamma signaling (AID 588537; active = well fitted inhibition curve with a large enough effect in the signal ratio, with a control signal flat, not every such curve was filed as active; inconclusive = small, poorly fitted or top-dose-only effect, or effect the other way, or a change in a side signal; the % refers to the signal ratio;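 also: reporter cells co-stimulated with 50 nM rosiglitazone agonist during compound treatment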; as to activity, negative = inhibition: % of control where 0% means no effect)
Conditions: HEK293 PPARg-UAS-bla, beta-lactamase ratio, antagonist mode; activity, negative = inhibition: at 76.8 µM (top of the series)
Summary of the method: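 Cell-based beta-lactamase assay; GW9662 served as the antagonist control. Stimulation used rosiglitazone, final 50 nM, 16 h, 37 C.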
In the case of `C[C@H](CCC(=O)O)[C@H]1CC[C@H]2[C@@H]3CC[C@@H]4C[C@H](O)CC[C@]4(C)[C@H]3CC[C@]12C`, the Potency is reported as inconclusive: 44.7 µM [side channel, rising, partial curve] and inconclusive: 39.8 µM [side channel, rising, partial curve]. In the case of `CCOP(=S)(OCC)SCSCC`, the “activity, negative = inhibition” value is reported as inactive: 2.11%. For `c1ccc(Nc2ccc3ccccc3c2)cc1`, the activity, negative = inhibition was inconclusive: -9.95% and inconclusive: -22.2%.

Biological target: Thyroid hormone receptor beta (Homo sapiens) (UniProt P10828)
Chain of UniProt P10828 (P10828 whole entry, looked up): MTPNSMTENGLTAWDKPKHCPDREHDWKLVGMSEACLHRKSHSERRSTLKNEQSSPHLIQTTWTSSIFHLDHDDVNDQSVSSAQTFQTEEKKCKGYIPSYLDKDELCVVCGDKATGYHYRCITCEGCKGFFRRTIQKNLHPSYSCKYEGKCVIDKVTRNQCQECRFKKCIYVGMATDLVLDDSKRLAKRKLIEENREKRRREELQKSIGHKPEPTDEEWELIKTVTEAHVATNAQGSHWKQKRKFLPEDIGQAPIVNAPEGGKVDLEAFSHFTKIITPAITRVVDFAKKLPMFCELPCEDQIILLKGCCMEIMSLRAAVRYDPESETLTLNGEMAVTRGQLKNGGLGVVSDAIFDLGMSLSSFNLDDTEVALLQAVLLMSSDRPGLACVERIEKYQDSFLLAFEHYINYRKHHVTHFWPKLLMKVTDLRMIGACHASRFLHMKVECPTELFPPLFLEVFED
Experiment: qHTS assay for small molecule antagonists of thyroid hormone receptor beta signaling (AID 588547; active = well fitted inhibition curve with a large enough effect in the signal ratio, with a control signal flat, not every such curve was filed as active; inconclusive = small, poorly fitted or top-dose-only effect, or effect the other way, or a change in a side signal; the % refers to the signal ratio;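 as to activity change % (negative = inhibition): cells stimulated with 0.4 nM T3 agonist during compound exposure; % is scaled to controls: 0 for no effect and ±100 for the full control effect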)
Conditions: TR-UAS-bla HEK293, beta-lactamase ratio, antagonist mode, 18 h
Summary of the method: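 Inhibition of T3-driven (0.4nM final) beta-lactamase reporter activity was measured over 0.59 nM to 92 uM compound after 18 h at 37 C. The cells were GripTite HEK293 TR-UAS-bla in charcoal/dextran-stripped serum, with CCF4 ratio read-out and IC50 from Hill fits.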
For `Clc1cnc(Oc2ccc(Oc3ncc(Cl)cc3Cl)cc2)c(Cl)c1`, the Potency was inconclusive: 39.8 nM [cytotoxic, side channel, full curve, poor fit]. In the case of `C[C@H](CCC(=O)O)[C@H]1CC[C@H]2[C@@H]3CC[C@@H]4C[C@H](O)CC[C@]4(C)[C@H]3CC[C@]12C`, the Potency is reported as inconclusive: 22.4 µM [fluorescent, side channel, partial curve, poor fit] and inconclusive: 50.1 µM [inhibitor, single point]. With `CCOP(=S)(OCC)SCSCC` the activity change % (negative = inhibition) was inconclusive: 5.65%. For `c1ccc(Nc2ccc3ccccc3c2)cc1`, the activity change % (negative = inhibition) was inactive: -6.28% and the Potency was inconclusive: 316 nM [side channel, falling, full curve, poor fit].
